Experimental data: the supplement of paper PMC8728848
The list shows a part of the results.

Key:
Assay in all cases: glycan array binding signal (z-score within array); higher = stronger binding
Conditions in all cases: glycan notation: IUPAC condensed, linker removed
[1] = target: Neu5Ac(a2-8)Neu5Ac
In short: (§1)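 From the Consortium for Functional Glycomics database, 3228 arrays were curated, keeping only those whose protein sequence was available. Binding is given as a within-array Z-score averaged across arrays sharing a protein sequence and across linkers. Negative Z-scores can be read as non-binding.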

[2] = target: Neu5Ac(a2-8)Neu5Ac(a2-3)Gal(b1-3)GalNAc(b1-4)[Neu5Ac(a2-3)]Gal(b1-4)Glc
In short: as §1

[3] = target: Neu5Ac(a2-8)Neu5Ac(a2-3)Gal(b1-3)GalNAc(b1-4)[Neu5Ac(a2-8)Neu5Ac(a2-3)]Gal(b1-4)Glc
In short: as §1

[4] = target: Neu5Ac(a2-8)Neu5Ac(a2-3)Gal(b1-4)Glc
In short: as §1

[5] = target: Neu5Ac(a2-8)Neu5Ac(a2-3)Gal(b1-4)GlcNAc
In short: as §1

[6] = target: Neu5Ac(a2-8)Neu5Ac(a2-3)[Gal(b1-3)GalNAc(b1-4)]Gal(b1-4)Glc
In short: as §1

[7] = target: Neu5Ac(a2-8)Neu5Ac(a2-3)[GalNAc(b1-4)]Gal(b1-4)Glc
In short: as §1

[8] = target: Neu5Ac(a2-8)Neu5Ac(a2-8)Neu5Ac
In short: as §1

[9] = target: Neu5Ac(a2-8)Neu5Ac(a2-8)Neu5Ac(a2-3)Gal(b1-4)Glc
In short: as §1

[10] = target: Neu5Ac(a2-8)Neu5Ac(a2-8)Neu5Ac(a2-3)[Gal(b1-3)GalNAc(b1-4)]Gal(b1-4)Glc
In short: as §1

[11] = target: Neu5Ac(a2-8)Neu5Ac(a2-8)Neu5Ac(a2-3)[GalNAc(b1-4)]Gal(b1-4)Glc
In short: as §1

[12] = target: Neu5Ac(a2-8)Neu5Ac(a2-8)Neu5Ac(a2-8)Neu5Ac(a2-3)[GalNAc(b1-4)]Gal(b1-4)Glc
In short: as §1

[13] = target: Neu5Ac(a2-8)Neu5Gc(a2-3)Gal(b1-4)GlcNAc
In short: as §1

[14] = target: Neu5Ac(b2-6)Gal(b1-4)GlcNAc
In short: as §1

[15] = target: Neu5Ac(b2-6)GalNAc
In short: as §1

[16] = target: Neu5Ac9Ac(a2-3)Gal(b1-3)GlcNAc
In short: as §1

[17] = target: Neu5Ac9Ac(a2-3)Gal(b1-4)GlcNAc
In short: as §1

[18] = target: Neu5Ac9Ac(a2-6)Gal(b1-4)GlcNAc
In short: as §1

[19] = target: Neu5Gc(a2-3)Gal(b1-3)GlcNAc
In short: as §1

[20] = target: Neu5Gc(a2-3)Gal(b1-3)[Fuc(a1-4)]GlcNAc
In short: as §1

[21] = target: Neu5Gc(a2-3)Gal(b1-4)Glc
In short: as §1

[22] = target: Neu5Gc(a2-3)Gal(b1-4)GlcNAc
In short: as §1

[23] = target: Neu5Gc(a2-3)Gal(b1-4)GlcNAc(b1-3)Gal(b1-4)GlcNAc(b1-2)Man(a1-3)[Neu5Gc(a2-3)Gal(b1-4)GlcNAc(b1-3)Gal(b1-4)GlcNAc(b1-2)Man(a1-6)]Man(b1-4)GlcNAc(b1-4)GlcNAc
In short: as §1

[24] = target: Neu5Gc(a2-3)Gal(b1-4)[Fuc(a1-3)]GlcNAc
In short: as §1

[25] = target: Neu5Gc(a2-6)Gal(b1-4)GlcNAc
In short: as §1

[26] = target: Neu5Gc(a2-6)GalNAc
In short: as §1

[27] = target: Neu5Gc(a2-8)Neu5Ac(a2-3)Gal(b1-4)GlcNAc
In short: as §1

[28] = target: Neu5Gc(a2-8)Neu5Gc(a2-3)Gal(b1-4)GlcNAc
In short: as §1

[29] = target: Neu5Gc(a2-8)Neu5Gc(a2-3)Gal(b1-4)GlcNAc(b1-3)Gal(b1-4)GlcNAc
In short: as §1

[30] = target: Neu5Gc(a2-8)Neu5Gc(a2-6)Gal(b1-4)GlcNAc
In short: as §1

[31] = target: Neu5Gc(b2-6)Gal(b1-4)GlcNAc
In short: as §1

B1: Sebin1 (Coprinopsis cinerea), A8PEE3 (protein)
chain: MTSPFYAHIHNVQDDNTWRFTLIFANRATADEWWRAISEAPANTSIAKSITRVTPQYYTHDVNIWNIWNFFADGNIKSISERFRGRLFIVLENDRGGRGITVIPPVPIVDHVSGNWFYIRSKTAPHLFWYYDERRSSIYASKEKRTRFKISIRNPSSQTPKNAIMINTDDVTIHIKENLYVGVDNNLGHIIPTRAYRTFKFGELESGAIAGFDVVENIEERCSSTFDGASLSISGPDSSSPGEPWELV
- glycan array binding signal (z-score) [1]: -0.323
- glycan array binding signal (z-score) [2]: -0.401
- glycan array binding signal (z-score) [3]: -0.152
- glycan array binding signal (z-score) [4]: -0.368
- glycan array binding signal (z-score) [5]: -0.406
- glycan array binding signal (z-score) [6]: -0.038
- glycan array binding signal (z-score) [7]: -0.445
- glycan array binding signal (z-score) [8]: -0.546
- glycan array binding signal (z-score) [9]: -0.293
- glycan array binding signal (z-score) [10]: -0.13
- glycan array binding signal (z-score) [11]: -0.609
- glycan array binding signal (z-score) [12]: 0.415
- glycan array binding signal (z-score) [13]: -0.427
- glycan array binding signal (z-score) [14]: 0.009
- glycan array binding signal (z-score) [15]: -0.55
- glycan array binding signal (z-score) [16]: 0.165
- glycan array binding signal (z-score) [17]: -0.473
- glycan array binding signal (z-score) [18]: -0.635
- glycan array binding signal (z-score) [19]: -0.447
- glycan array binding signal (z-score) [20]: -0.26
- glycan array binding signal (z-score) [21]: -0.427
- glycan array binding signal (z-score) [22]: -0.074
- glycan array binding signal (z-score) [23]: 0.166
- glycan array binding signal (z-score) [24]: -0.42
- glycan array binding signal (z-score) [25]: -0.391
- glycan array binding signal (z-score) [26]: -0.54
- glycan array binding signal (z-score) [27]: 0.133
- glycan array binding signal (z-score) [28]: -0.582
- glycan array binding signal (z-score) [29]: 0.124
- glycan array binding signal (z-score) [30]: -0.823
- glycan array binding signal (z-score) [31]: 0.6
